Screen size: about 390,000 compounds; about 4,000 (1%) were called active. Inconclusive results, whose numbers are uncertain, are shown with a selection of clear calls. The call rests on the fitted dose curve; in most records, active means well fitted inhibition curve with a large enough effect; inconclusive means small, poorly fitted or top-dose-only effect; inactive means no such curve, though single readings can be large or run the other way. Potencies of inconclusive entries are doubtful fits and often do not repeat. Square brackets hold non-standard residues; d marks the D form. Peptide text beside a SMILES is read from it. * marks the point of attachment. ξ: configuration not given here. ONp = O=[N+]([O-])c1ccc(O*)cc1; ξF = NC(Cc1ccccc1)C(=O)O; Cbz = O=C(OCc1ccccc1)*
What follows are molecules tested against Thioredoxin reductase 1, cytoplasmic (Rattus norvegicus) (UniProt O89049) (assay: qHTS Assay for Inhibitors of Mammalian Selenoprotein Thioredoxin Reductase 1 (TrxR1): qHTS). Conditions: recombinant rTrxR1, NADPH fluorescence consumption, selenite substrate; series mostly up to 114 µM.
Chain of UniProt O89049 (O89049 whole entry, looked up): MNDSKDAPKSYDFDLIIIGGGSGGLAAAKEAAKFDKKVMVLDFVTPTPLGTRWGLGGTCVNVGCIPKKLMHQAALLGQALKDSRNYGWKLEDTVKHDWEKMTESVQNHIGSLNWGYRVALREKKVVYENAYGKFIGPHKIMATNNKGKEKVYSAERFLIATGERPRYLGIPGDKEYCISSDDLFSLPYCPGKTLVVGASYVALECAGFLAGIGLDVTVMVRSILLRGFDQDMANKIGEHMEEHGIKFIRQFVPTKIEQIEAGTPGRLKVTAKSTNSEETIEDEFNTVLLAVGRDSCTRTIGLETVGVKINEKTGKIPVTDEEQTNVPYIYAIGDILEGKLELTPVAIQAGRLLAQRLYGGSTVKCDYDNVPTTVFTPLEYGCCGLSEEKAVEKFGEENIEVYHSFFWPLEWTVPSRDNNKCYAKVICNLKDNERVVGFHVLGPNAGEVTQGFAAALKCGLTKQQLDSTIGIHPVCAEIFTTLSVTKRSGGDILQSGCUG
Procedure, shortened: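 Rat TrxR1 (90 nM in the dispensed reagent) was pre-reduced with 400 uM NADPH for 5 min at room temperature, then incubated with compound for 15 min. After 400 uM selenite was added, NADPH fluorescence (Ex 340/Em 450 nm) was followed for 8 min.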
For `CC1CCc2nn(CC(=O)NCc3ccco3)cc2C1` (stereo not given), the Potency was “inactive”. `Cc1cccc(NC(c2ccccc2F)c2ccc3ccc(C)nc3c2O)n1` (stereo not given) was tested, and the Potency was inconclusive: 17.8 µM [inhibitor, single point]. For `Cc1ccc(OCC(=O)Nc2ccccc2OCc2cc(=O)n3ccccc3n2)cc1C`, the Potency was inconclusive: 25.1 µM [inhibitor, single point]. `COc1ccc(C(=O)NCC(c2ccc(N(C)C)cc2)N2CCc3ccccc32)cc1OC` (stereo not given) was tested, and the Potency was inconclusive: 22.4 µM [inhibitor, partial curve]. With `CCN(CC(=O)NC(C)(C)C)C(=O)CCl` the Potency was inconclusive: 70.8 µM [inhibitor, partial curve]. For `COc1ccc(-c2nc(C#N)c(N3CCCCCC3)o2)cc1OC`, the Potency was inconclusive: 70.8 µM [inhibitor, single point]. For `O=C(CCCN1C(=O)S/C(=C/C=C/c2ccccc2)C1=O)Nc1ccc(C(=O)O)cc1`, the Potency was active: 79.4 µM. For `O=c1nc2c(O)cccn2c2c1c(=O)[nH]c1ccccc12`, the Potency was inconclusive: 50.1 µM [inhibitor, partial curve]. For `CCOC(=O)C(=Cc1ccc(-c2ccsc2C(=O)OC)o1)C(=O)OCC`, the Potency was “inactive”. In the case of `Cc1ccc(-c2nc(CS(=O)CC(=O)NCc3ccc4c(c3)OCO4)c(C)o2)cc1` (stereo not given), the Potency is reported as inconclusive: 12.6 µM [inhibitor, partial curve]. For `Cc1ccc(C2=NC3(CCCCCC3)NC2=S)cc1`, the Potency was “inactive”. In the case of `CCS(=O)(=O)N1CC(=O)N(c2ccc(Cl)cc2)C(C)(C(=O)NC2CCCCC2)C1` (stereo not given), the Potency is reported as “inactive”. `Cc1cc(C)cc(CSCC(=O)NN=C2CCCCCC2)c1` was tested, and the Potency was inconclusive: 8.91 µM [inhibitor, single point]. `CCOc1cc(/C=C\[N+](=O)[O-])ccc1OCC(=O)Nc1ccccc1C` was tested, and the Potency was inconclusive: 3.98 µM [inhibitor, partial curve, poor fit]. In the case of `S=C(Nc1ccccc1Cl)N1CCN(Cc2ccccc2)CC1`, the Potency is reported as inconclusive: 44.7 µM [inhibitor, partial curve, poor fit]. `Cc1ccsc1/C=N/NC(=O)c1nnn(-c2nonc2N)c1-c1ccccc1` was tested, and the Potency was inconclusive: 89.1 µM [inhibitor, single point]. `Cc1ccc(S(=O)(=O)N2CCC(C(=O)N3CCC[C@H]3C(=O)NCc3ccco3)CC2)cc1` was tested, and the Potency was inconclusive: 17.8 µM [inhibitor, full curve]. `CCc1cccc(NC(=O)C(Cc2ccccc2)n2cccc2)c1` (stereo not given) was tested, and the Potency was “inactive”. With `CC(C)[C@H](NC(=O)OCc1ccccc1)C(=O)NC(C=O)Cc1ccccc1` (stereo partly drawn) (Cbz-Val-[ξF]-aldehyde) the Potency was “inactive”. In the case of `Cc1oc(-c2cccc(Cl)c2)nc1CS(=O)(=O)CC(=O)NC1CCCC1`, the Potency is reported as inconclusive: 56.2 µM [inhibitor, partial curve]. For `CCOC(=O)C1=NN(N=O)C2(CC(=O)N(c3cc(C)cc(C)c3)C2=O)C1` (stereo not given), the Potency was active: 15.8 µM. With `O=C1CCCN2N=C(SCC(=O)N3N=C(c4ccc(Br)cc4)CC3c3ccc(F)cc3)SC2=N1` (stereo not given) the Potency was “inactive”. In the case of `Cc1ccc(-c2nc3ncccc3o2)cc1NC(=O)c1ccco1`, the Potency is reported as inconclusive: 50.1 µM [inhibitor, partial curve]. With `Cc1ccc(/C=C/C(=O)Nc2ccccc2C(N)=O)o1` the Potency was inconclusive: 39.8 µM [inhibitor, partial curve]. With `CC1(C)Cc2nc3[nH]c(=S)n(-c4ccccc4)c(=O)c3cc2CO1` the Potency was inconclusive: 1.12 µM [inhibitor, full curve, poor fit]. With `Cc1ccc2nc3c(cc(C(=O)NCC4CCCO4)c(=N)n3CCCOC(C)C)c(=O)n2c1` (stereo not given) the Potency was inconclusive: 31.6 µM [inhibitor, full curve, poor fit]. `CCCCS(=O)(=O)c1oc(-c2ccc(F)cc2)nc1S(=O)(=O)c1ccc(C)cc1` was tested, and the Potency was active: 1.41 µM. In the case of `Cc1oc(=O)cc(OCc2ccccc2)c1C`, the Potency is reported as inconclusive: 70.8 µM [inhibitor, single point]. `O=C(CNC(=O)OCc1ccccc1)NCC(=O)Oc1ccc([N+](=O)[O-])cc1` (Cbz-Gly-Gly-ONp) was tested, and the Potency was inconclusive: 39.8 µM [inhibitor, partial curve, poor fit]. In the case of `Cc1ccc(-c2nn(-c3ccccc3Cl)cc2C(=O)NCC2CCCO2)cc1` (stereo not given), the Potency is reported as inconclusive: 70.8 µM [inhibitor, partial curve]. For `CCOc1ccc(NC(=O)[C@@H](NC(=O)c2ccccc2Br)C(C)C)cc1`, the Potency was “inactive”. In the case of `CCOc1ccc(-n2c(CCc3ccccc3)n[nH]c2=S)cc1`, the Potency is reported as “inactive”. `CCOc1ccccc1NC(=O)c1cc(Cl)ccc1NC(=O)c1ccco1` was tested, and the Potency was “inactive”. With `CC(=O)SC(C[N+](=O)[O-])c1cn(C(C)=O)c2ccccc12` (stereo not given) the Potency was active: 17.8 µM. In the case of `CN1\C(=C/C=C/C=C/C=[N+](C)C)C(C)(C)c2ccccc21`, the Potency is reported as inconclusive: 70.8 µM [inhibitor, partial curve, poor fit]. For `O=C(Nc1ccc(N2CCCC2)cc1)C(Cl)c1ccccc1` (stereo not given), the Potency was active: 15.8 µM. For `O=C(CCS(=O)(=O)c1ccccc1Cl)Nc1ccc(S(=O)(=O)Nc2ncccn2)cc1`, the Potency was inconclusive: 56.2 µM [inhibitor, single point]. In the case of `NC(=O)c1cccc(N=Cc2cc(Cl)cc(Cl)c2O)c1`, the Potency is reported as inconclusive: 0.1 µM [inhibitor, full curve, poor fit]. `Cn1c(=O)c2c(-c3ccccc3)n(Cc3ccccn3)cc2n(C)c1=O` was tested, and the Potency was inconclusive: 44.7 µM [inhibitor, single point]. For `CCc1ccccc1N1CSC2=C(C#N)C(c3cc(OC)c(OC)cc3OC)CC(=O)N2C1` (stereo not given), the Potency was inconclusive: 50.1 µM [inhibitor, partial curve]. In the case of `Cc1cccc(S(=O)(=O)c2c(N)n(Cc3ccco3)c3nc4ccccc4nc23)c1`, the Potency is reported as inconclusive: 39.8 µM [inhibitor, single point]. In the case of `Cc1ccc(N(CC(N)=O)C2SC(=O)N(Cc3ccccc3)C2=O)cc1` (stereo not given), the Potency is reported as inconclusive: 31.6 µM [inhibitor, partial curve]. `Cc1cccc(CSc2ccc(-c3ccco3)nn2)c1` was tested, and the Potency was inconclusive: 50.1 µM [inhibitor, partial curve, poor fit]. For `Nc1nc(SCc2ccc([N+](=O)[O-])cc2)c2ncn([C@@H]3O[C@H](CO)[C@H](O)[C@H]3O)c2n1`, the Potency was inconclusive: 50.1 µM [inhibitor, partial curve, poor fit]. `Cc1cc(Cl)ccc1OCc1nc(-c2ccc(O)cc2)n[nH]1` was tested, and the Potency was “inactive”. With `CCOc1ccc([N+](=O)[O-])cc1CNC1CCCCCCC1` the Potency was “inactive”. `CCC(=O)N1CCc2cc(S(=O)(=O)NC(Cc3ccccc3)C(=O)Nc3ccccc3C)ccc21` (stereo not given) was tested, and the Potency was “inactive”. In the case of `Cc1ccc2[nH]c(=S)cc(C)c2c1`, the Potency is reported as inconclusive: 2 µM [inhibitor, full curve, poor fit]. In the case of `C/C(=N\NC(=S)Nc1ccccc1C)C1Cc2ccccc2C(=O)O1` (stereo not given), the Potency is reported as inconclusive: 89.1 µM [inhibitor, partial curve, poor fit]. `Cc1cc(CNCCN(C)C)c(C)n1-c1cc(S(=O)(=O)N2CCOCC2)ccc1N1CCCC1` was tested, and the Potency was active: 89.1 µM. In the case of `COc1ccc(S(=O)(=O)Nc2ccc(S(=O)(=O)Nc3nccs3)cc2)cc1`, the Potency is reported as “inactive”. In the case of `O=C(Nc1sc2c(c1C(=O)Nc1ccccc1)CCC2)c1ccc(Br)cc1`, the Potency is reported as active: 56.2 µM. For `O=C(Nc1ccc(F)cc1)c1cc(S(=O)(=O)Nc2ccc(F)cc2)cs1`, the Potency was inconclusive: 31.6 µM [inhibitor, single point]. `O=C(Nc1ccc(S(=O)(=O)N2CCOCC2)cc1)C1CC1` was tested, and the Potency was inconclusive: 100 µM [inhibitor, single point]. `C(=N\Nc1nc2ccccc2s1)/c1ccc2c(c1)OCO2` was tested, and the Potency was “inactive”. In the case of `C=C1C(=O)C=C2CN(C(=O)c3ccccc3)[C@@](Cc3ccc(F)cc3)(C(=O)OC)[C@@H]12`, the Potency is reported as active: 8.91 µM. `CCCn1c(=O)c2ccccc2n2c(SCC(=O)NCc3cccs3)nnc12` was tested, and the Potency was “inactive”. For `O=C(Cn1c(=O)nc(-c2ccccc2)c2ccccc21)N1CCN(c2ccc(F)cc2)CC1`, the Potency was “inactive”. `O=C(CSc1ccc2nnc(-c3ccc(F)cc3)n2n1)NCc1ccco1` was tested, and the Potency was inconclusive: 20 µM [inhibitor, partial curve, poor fit]. `CC(C)c1ccc(C(=O)NC(=S)NCc2cccnc2)cc1` was tested, and the Potency was inconclusive: 3.98 µM [inhibitor, full curve]. In the case of `O=C(NC(=S)Nc1ccc2c(c1)OCO2)c1ccccc1`, the Potency is reported as inconclusive: 3.16 µM [inhibitor, full curve]. With `CCN1CCN(CCCNC(=O)C2c3ccccc3C(=O)N(c3ccc(OC)cc3)C2c2ccc(OC)cc2)CC1` (stereo not given) the Potency was inconclusive: 89.1 µM [inhibitor, partial curve, poor fit]. With `COc1cc(OC)cc(C(=O)Nc2ccc(CN3CCCCC3)cc2)c1` the Potency was “inactive”. In the case of `O=C(CCS(=O)(=O)c1ccccc1)N(Cc1cccnc1)c1nc2ccc(F)cc2s1`, the Potency is reported as active: 3.16 µM. `OC(COCc1cccs1)CN1CCCCCC1` (stereo not given) was tested, and the Potency was inconclusive: 15.8 µM [inhibitor, partial curve, poor fit]. With `CC(C)CN(C)c1ccc(/C=C2\C=Cc3ccccc32)cc1` the Potency was active: 44.7 µM. In the case of `COc1ccc(C(C)(C)C)cc1NC(=O)COC(=O)C1=NNC(=O)CC1`, the Potency is reported as “inactive”. `C=CCn1cccc(C(=O)Nc2ccc(Cl)cc2)c1=O` was tested, and the Potency was “inactive”. In the case of `Cc1ccccc1OCC(=O)NCC(c1ccc(Cl)cc1)N1CCCCC1` (stereo not given), the Potency is reported as “inactive”. `O=C(Nc1c(Cl)cc(Cl)cc1-c1nc2ccccc2s1)c1ccc(Br)o1` was tested, and the Potency was inconclusive: 22.4 µM [inhibitor, single point].

— PubChem BioAssay AID588453 (National Center for Advancing Translational Sciences (NCATS), 2011)
Further: nearly all actives have a fitted effect of over 65% in size.
Potency means the concentration at half of the fitted maximal effect; tags describe the fitted curve by direction and shape.
